B1: OR4K15 (parent)
chain: GUUAACGGUCAUAGGCCAUGGAAACUAGGAGCACCAUUUCGCUGCCAGUGAAGAAAUGAACAAAGAAAAUCUGGGCCAGGCAGGCAUCAAAAGAAAUAGUCUUGCGCUCAACCAGAAAGUCUGUAAUCAUUUUAAGGGUA

Read counts are not given, so values of variants with three or more changes are uncertain.

Variants of B1 are the subject of the data set. The data set can be described thus: self-cleavage, relative activity (ratio to wild type); higher = more cleavage; in vitro, sequencing; the parent is a self-cleaving ribozyme.
On to A18G U43C A90U A92U A110G, for which the self-cleavage was 0.41.
Turning to U19C A23G U131C A135U, the self-cleavage was found to be 2.12.
The value for A18G U38C U43A A110U was 2.
The value for G21U A24G A56G U108C was 0.07; that for G21A A92G U120C was 1.34; that for U19C A51G A56G A60G U72A A86G U131C was 0.13.
The figure for G20A A82U A117G is 0.25; for A18G U49G A111G A126G it is 0.05; for A18G U43A A78U A82U U122C it is 0.06.
For A18G U37C A68G, the self-cleavage was found to be 1.21.
The figure for U19G G50A U132A is 0.38.
The figure for U19C A30G U87C is 0.23; for U19C A24G A54G A69G it is 0.9.
Regarding A18G U103C U122C, the self-cleavage is 0.23.
The value for A18G U49C G65A A95G was 1.72; that for A18G U39C A78U A89C was 0.38; that for A18U A64G A69G was 1.49.
Consider A18G U49C A96G U100C, for which the self-cleavage was found to be 1.58.
The value for U19A A36U A92G A116G was 1.21; that for A18G U39C U49C A55G A56C A86U U87C A135G was 0.31.
The value for U19A A23G A47U was 1.29.
The figure for A18U U39C A114U is 0.15; for U19A C107A U120C it is 0.02; for U19C A23C A51G A62G A116C U124C it is 0.24.
On to U19A A27G A92G, for which the self-cleavage is 1.75.
The figure for G21A A51G A126G is 0.84.
U19C U57C A67G U122C: the self-cleavage turned out to be 1.41.
As for U19C U39G A52G A68G, the self-cleavage turned out to be 0.61.
The value for A18G U38C A91G U102C was 2.06; that for U19C A55G A135G was 1.9.
The value for U19C C42A U49C A134G was 0.21; that for A18U A52G U108C was 0.02; that for G21A U38C U39C U87A U122A A126G was 1.8.
The figure for U19A A30G A114U is 0.04.
As for U19A U37G A110C, the self-cleavage was 0.26.
The value for A18G U87C G119A U122C was 0.27.
The value for U19C U49C A62C was 1.32.
The figure for A18G U19C U70C A95C A118U is 0.13.
With U19C U57C A60U U87C, the self-cleavage is 0.44.
The figure for U19C U122C A129G is 1.5; for U19C U26C A27G A78G A89G it is 0.28; for G21A A52G A62U U100C it is 1.9.
The value for A18U A118G U130C was 0.54.
The value for U19C U43C A66G A96U was 1.89; that for A18G U19C A36U U72G A91U U108C was 0.03; that for G21U A91G U102C was 1.64.
A18U A47G A68G A86G: the self-cleavage was 1.31.
Regarding U19C A54G U87C, the self-cleavage came to 1.69.
The value for A18U A30G A47C A68G was 1.15.
The value for G21U U37A A63G U87A was 1.91.
With U19C A54G A95G U108C, the self-cleavage was 0.01.
With U19C A22G A59G A64G U122C, the self-cleavage was 1.19.
Take G21A A24C A55G: the self-cleavage was determined as 0.96.
The figure for A18G U49C A54G A111G is 0.04; for U19C U37C U87C it is 1.71.
The figure for A18U A47G A56G U87C U103C A111U is 0.01.
A18G U39C A68G U131C: the self-cleavage was determined as 1.07.
The figure for G21A A27G A62G A92G U102C is 1.64; for A18G U19C A59U A91G U122C U124C it is 0.42.
The value for U19A A86G A117G was 2.37; that for A18G U39A A47G A63G A92G was 1.08.
The figure for U19A A52G A60U A96G A111G U130G is 0.03; for U19C U97G U102C U108C it is 0.01; for U19G U133G U139C it is 0.31.
As to A18U A22G A51G A54G A82U A98G A125G, the self-cleavage was determined as 0.05.
Regarding A18U A23G A30G A56G, the self-cleavage worked out at 1.12.
The value for A18U U26C A89U was 1.07; that for A18U A63G C88U was 1.32; that for U19C A27G A94U A126G was 1.26.
Regarding U19G G31A U49C A114U A134G, the self-cleavage worked out at 0.06.
U19C U72C A90G A91G U124C: the self-cleavage is 0.1.
The figure for A18U G31A G74A U122C A129G is 0.13; for U19C A116G U127A it is 1.12.
The figure for A18G U87C A111U A116G U127C is 0.
The value for U19C A47U A63G A78G was 0.14; that for A18U A52G A63G A116G was 0.2.
In the case of U19C A47G A60G A62G A66G U130C, the self-cleavage was 0.11.
The figure for U19C U87C U100C is 1.69.
As for U19A A24G A89G A92G, the self-cleavage turned out to be 1.18.
The value for U19C U49A A63G U132C was 1.18; that for U19C A91G A95G was 1.64; that for A18U U72A A116G was 0.08.
The figure for A18G U108A A110G U130A A140G is 0.02.
